This is one part of the list. These are noisy estimates, calculated here from bound and input reads.
biological target: T1, Pho4 (S. cerevisiae) (UniProt P07270); assay: relative binding free energy (BET-seq); higher = weaker binding; conditions: reference: library average
T1 sequence: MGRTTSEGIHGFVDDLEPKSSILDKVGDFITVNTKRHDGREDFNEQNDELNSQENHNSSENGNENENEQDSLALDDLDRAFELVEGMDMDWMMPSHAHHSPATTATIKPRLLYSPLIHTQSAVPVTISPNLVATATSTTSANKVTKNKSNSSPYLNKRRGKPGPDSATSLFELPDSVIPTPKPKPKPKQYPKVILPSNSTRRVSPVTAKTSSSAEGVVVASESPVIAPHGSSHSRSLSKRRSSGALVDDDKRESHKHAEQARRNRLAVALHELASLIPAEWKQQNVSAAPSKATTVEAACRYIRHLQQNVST

| Sequence | relative binding free energy [kcal/mol] |
| --- | --- |
| TGGTGCACGTGGAGGG | 0.01 |
| GGGGGCACGTGTGGTA | 0 |
| CGGGACACGTGGCATG | -0.02 |
| TGGCACACGTGGAGTG | -0.06 |
| ATCTTCACGTGGGTGT | 0.2 |
| GGAAACACGTGGGTTT | 0.04 |
| TAGTGCACGTGAGGCG | 0.17 |
| TATTTCACGTGTGCTT | 0.32 |
| CGAGTCACGTGCGGTG | 0.03 |
| GTTCGCACGTGTCGGG | 0.03 |
| ACGGGCACGTGGTATG | -0.34 |
| CGTATCACGTGTGCGG | 0.1 |
| AGCTACACGTGTTGGG | 0.12 |
| ACGTGCACGTGGAGTG | -0.09 |
| TATATCACGTGTCGAT | 0.18 |
| CTGATCACGTGGGGCG | 0.02 |
| GTTTACACGTGCCTGT | 0.07 |
| GGGGACACGTGTCGTA | 0.14 |
| AATATCACGTGTAAGG | 0.12 |
| TCATTCACGTGAGGTA | 0.53 |
| TGTTACACGTGGAGTC | 0.08 |
| ATGGCCACGTGGTATG | -0.14 |
| TGTGTCACGTGATAAG | 0.07 |
| CTGTTCACGTGGGAAA | 0.33 |
| GGGAGCACGTGGGAGT | -0.17 |

| Sequence | relative binding free energy [kcal/mol] |
| --- | --- |
| GGCCTCACGTGTGTTG | 0.19 |
| CGAGGCACGTGGAGTT | -0.18 |
| GTCGTCACGTGGTGTG | 0.06 |
| GACAGCACGTGATGGG | 0.24 |
| CAGGGCACGTGCGTGG | -0.13 |
| TATTACACGTGGGGAA | 0.02 |
| GAGTGCACGTGGCGGA | 0.01 |
| GTGGCCACGTGATTGT | 0.03 |
| AAGGGCACGTGAGGGA | 0.14 |
| TTATGCACGTGTATCG | -0.04 |
| TGCTTCACGTGCGGTT | 0.15 |
| TGTTGCACGTGTTCAT | 0.04 |
| AAAAACACGTGAGGTG | 0.25 |
| GTGCTCACGTGTTCGG | 0.26 |
| AAGTTCACGTGGGGAG | 0.14 |
| TATGGCACGTGCAAGG | -0.05 |
| TTCAGCACGTGTGGAG | -0.07 |
| TGCAGCACGTGGTTAA | -0.08 |
| AAAATCACGTGGTTTG | 0.1 |
| TCCGGCACGTGCGTGG | -0.16 |
| ATGAGCACGTGTTGTA | -0.21 |
| AGAAGCACGTGAGGGA | 0.15 |
| ATTATCACGTGTCATT | 0.17 |
| AATGTCACGTGGCTGG | 0.06 |
| TGGGACACGTGAGAGG | 0.35 |

| Sequence | relative binding free energy [kcal/mol] |
| --- | --- |
| TTAGTCACGTGAACTG | 0.25 |
| ATGCGCACGTGAGATT | 0.21 |
| AGAAACACGTGGGGAA | -0.01 |
| GGTGACACGTGTTATT | -0.13 |
| CAGTTCACGTGGGGCT | 0.13 |
| GTGATCACGTGTGAGC | 0.34 |
| GGGTCCACGTGGTGGC | 0.13 |
| TGGGTCACGTGATGCT | 0.27 |
| ATATTCACGTGGGGTT | 0.09 |
| ATGGTCACGTGGTGTC | 0.04 |
| TGTATCACGTGGCTGT | -0.01 |
| CGAGTCACGTGGGGGA | -0.16 |
| CGGGGCACGTGGCGTA | -0.27 |
| TGTTCCACGTGGGGGA | -0.09 |
| TTTCGCACGTGTTAGG | 0.01 |
| TGTTTCACGTGCAAAT | 0.35 |
| GTTGTCACGTGCAAAT | 0.26 |
| TCTGTCACGTGAGGGT | 0.27 |
| GGGGGCACGTGATAGT | 0.16 |
| TGAATCACGTGTATGA | 0.24 |
| GCTAGCACGTGGGGCG | -0.1 |
| CTTGACACGTGGAAGG | 0.1 |
| GTTAGCACGTGGTTTG | -0.12 |
| GAGGGCACGTGAGATT | 0.16 |
| GTTAACACGTGTGTCG | 0.12 |

| Sequence | relative binding free energy [kcal/mol] |
| --- | --- |
| ATATGCACGTGTGTTC | -0.04 |
| GGGTACACGTGGTCAT | 0.04 |
| TTAGGCACGTGGGCGC | -0.3 |
| AGTGGCACGTGGTGAG | -0.14 |
| TATTTCACGTGTCGTT | 0.19 |
| ATTTTCACGTGGCGGG | 0.24 |
| TTCTACACGTGTATTT | 0.07 |
| TGGATCACGTGGCTAT | 0.02 |
| TGGGGCACGTGACTGG | -0.04 |
| TCGTTCACGTGATAGG | 0.34 |
| GGGGTCACGTGGTGAA | 0.1 |
| TTCGGCACGTGTTACT | 0.02 |
| ACTTGCACGTGGTTAG | 0.06 |
| TATGACACGTGTTGGC | 0.09 |
| ATTTTCACGTGTCGGG | 0.22 |
| GGCCGCACGTGGGATG | -0.19 |
| ATTAGCACGTGCTTGG | -0.06 |
| GCTTACACGTGCGGTG | 0.16 |
| TTAGGCACGTGATGTC | -0.02 |
| AGGATCACGTGTTTGC | 0.08 |
| CTGTGCACGTGGATGG | -0.07 |
| GGTAGCACGTGCTGGG | -0.07 |
| GGAGTCACGTGATGGC | 0.37 |
| GATGGCACGTGGATAG | -0.04 |
| GGGGACACGTGTTCGT | 0.12 |

| Sequence | relative binding free energy [kcal/mol] |
| --- | --- |
| AGGTGCACGTGCGTCG | -0.09 |
| AGTATCACGTGTAGTG | 0.17 |
| GTAAACACGTGGATGG | 0.11 |
| TGCAGCACGTGTATTT | 0.04 |
| CGTGTCACGTGTTTCG | 0.04 |
| GTGGGCACGTGATGTG | 0.05 |
| GGATTCACGTGAGTTC | 0.47 |
| CGGAGCACGTGAGGTT | 0.13 |
| TAATACACGTGGATAT | -0.02 |
| GGGGTCACGTGCTGTC | 0.1 |
| TTGGTCACGTGGACTT | 0.01 |
| TCTAGCACGTGGTATA | -0.07 |
| AGGGCCACGTGCAGGT | -0.19 |
| AGTTTCACGTGTCTGG | 0.36 |
| GGGCTCACGTGCAGGG | 0.16 |
| GGTCACACGTGGTGGT | -0.11 |
| AAAGGCACGTGGATGT | -0.06 |
| TTTTGCACGTGAGTTA | 0.24 |
| TGCTGCACGTGCTGGG | 0.02 |
| GTGGCCACGTGTTTTG | 0.1 |
| TGGTACACGTGGGGAC | 0 |
| CGCGACACGTGGTGGT | -0.1 |
| TTGCGCACGTGAGTAT | 0.19 |
| GAAGTCACGTGGAATG | 0.18 |
| AGTAGCACGTGTGGTG | -0.1 |

| Sequence | relative binding free energy [kcal/mol] |
| --- | --- |
| TTTGCCACGTGGGTGT | -0.15 |
| TTACGCACGTGAGGGT | 0 |
| GGTGTCACGTGCTGCG | -0.11 |
| CGTTGCACGTGTGCGG | 0.01 |
| TGAAACACGTGTCGGA | 0.19 |
| AGTATCACGTGTGCGG | 0.2 |
| CTTTACACGTGGCCGT | 0.24 |
| CCGGGCACGTGTGTTG | -0.01 |
| GCGATCACGTGGTAGG | 0.11 |
| GGTAACACGTGAGTAG | 0.15 |
| GAATTCACGTGTGGGA | 0.36 |
| CAGAGCACGTGGGTAG | -0.2 |
| ATAGACACGTGGAGGT | -0.12 |
| TTGAACACGTGTGCAG | 0.02 |
| GGAGCCACGTGTTTTG | 0 |
| TGTGACACGTGGATAG | -0.05 |
| GGCTTCACGTGAGCGG | 0.22 |
| TTCCTCACGTGGGAGG | 0.23 |
| GGTGACACGTGACTTT | 0.2 |
| TGGGTCACGTGACGTT | 0.25 |
| GGGACCACGTGTTAGG | 0 |

— the BET-seq Pho4 binding data (Le et al. 2018)
